Hit rate of the full screen: of about 310,000 compounds, about 2,200 (0.71%) showed an effect of 50% or more. Effects have a minus sign here. This is one part of the list.

The results in this text go back to paper PMC4336329 (PLoS ONE, 2015).

Sequence of human ether-à-go-go-related gene (hERG) potassium channel (Q12809 whole entry, looked up): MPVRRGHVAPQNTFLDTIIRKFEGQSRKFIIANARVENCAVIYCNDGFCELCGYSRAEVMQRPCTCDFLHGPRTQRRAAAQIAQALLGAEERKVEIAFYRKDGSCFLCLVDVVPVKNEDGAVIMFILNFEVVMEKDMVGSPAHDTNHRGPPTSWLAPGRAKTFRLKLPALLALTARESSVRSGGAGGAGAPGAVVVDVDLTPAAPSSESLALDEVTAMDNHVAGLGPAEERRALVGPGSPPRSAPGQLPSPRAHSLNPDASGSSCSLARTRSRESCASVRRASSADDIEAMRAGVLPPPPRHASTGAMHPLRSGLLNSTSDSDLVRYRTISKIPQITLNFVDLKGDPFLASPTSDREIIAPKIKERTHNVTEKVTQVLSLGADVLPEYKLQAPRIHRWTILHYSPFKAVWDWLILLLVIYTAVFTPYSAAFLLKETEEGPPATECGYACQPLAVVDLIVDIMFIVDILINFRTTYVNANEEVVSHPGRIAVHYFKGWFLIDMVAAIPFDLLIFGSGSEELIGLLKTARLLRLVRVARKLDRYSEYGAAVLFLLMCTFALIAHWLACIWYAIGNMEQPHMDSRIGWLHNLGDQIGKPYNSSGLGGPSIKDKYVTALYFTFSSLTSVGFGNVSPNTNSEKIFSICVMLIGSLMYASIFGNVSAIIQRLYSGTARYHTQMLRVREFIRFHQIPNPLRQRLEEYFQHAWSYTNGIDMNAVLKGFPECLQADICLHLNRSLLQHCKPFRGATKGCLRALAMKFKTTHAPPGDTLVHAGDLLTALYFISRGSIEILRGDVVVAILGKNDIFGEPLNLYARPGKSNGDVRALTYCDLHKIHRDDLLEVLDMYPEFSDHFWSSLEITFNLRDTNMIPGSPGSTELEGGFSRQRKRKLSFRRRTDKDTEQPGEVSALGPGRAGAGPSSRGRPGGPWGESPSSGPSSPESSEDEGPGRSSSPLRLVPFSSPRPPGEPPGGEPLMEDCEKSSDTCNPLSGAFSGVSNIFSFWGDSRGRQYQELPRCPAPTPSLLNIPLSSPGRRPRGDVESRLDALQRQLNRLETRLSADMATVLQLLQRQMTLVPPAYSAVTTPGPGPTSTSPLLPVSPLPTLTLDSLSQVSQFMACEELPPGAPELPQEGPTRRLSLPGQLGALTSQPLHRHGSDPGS

This experiment concerns the target human ether-à-go-go-related gene (hERG) potassium channel (human, UniProt Q12809). Description: primary screen, population patch clamp on CHO cells stably expressing hERG.
Regarding `CCCCN(C)C(=O)Cn1c(=O)oc2cc(S(=O)(=O)N3CC(C)CC(C)C3)ccc21` (stereo not drawn), the “hERG current change (%, negative = inhibition) at 1uM” value amounted to 7.88%.

Take `CCOC(=O)c1c(NC(=O)CSc2nnc(Cc3ccccc3)o2)sc(C)c1C`: the “hERG current change (%, negative = inhibition) at 1uM” value was 1.55%.

With `O=C(NC(=S)Nc1ccc(O)cc1)C1CCCC1`, the “hERG current change (%, negative = inhibition) at 1uM” value worked out at 22.2%.

In the case of `CCN1CCCC1CNC(=O)c1cc([N+](=O)[O-])c(N(C)C)cc1OC` (stereo not drawn), the “hERG current change (%, negative = inhibition) at 1uM” value came to 7.8%.

For the molecule `O=C1OCCC1N1C(=O)c2ccccc2S1(=O)=O` (stereo not drawn), the “hERG current change (%, negative = inhibition) at 1uM” value was -5.13%.

Consider `CSc1cc(-c2ccccc2)[nH]c(=O)c1C#N`, for which the “hERG current change (%, negative = inhibition) at 1uM” value is 14%.

As to `CC(=O)c1ccc(NC(=O)c2ccc3nc(-c4ccco4)c(-c4ccco4)nc3c2)cc1`, the “hERG current change (%, negative = inhibition) at 1uM” value amounted to 11.4%.

In the case of `COc1ccc(CNS(=O)(=O)c2cc(Br)cc3c2N(C(C)=O)C(C)C3)cc1` (stereo not drawn), the “hERG current change (%, negative = inhibition) at 1uM” value was determined as 1.29%.

`O=C(COC(=O)/C=C/c1ccc(S(=O)(=O)N2CCOCC2)cc1)NCc1ccccc1`: the “hERG current change (%, negative = inhibition) at 1uM” value stood at 2.83%.

With `O=[N+]([O-])c1cccc(-c2noc(COc3ccccc3)n2)c1`, the “hERG current change (%, negative = inhibition) at 1uM” value was found to be 17.6%.

On to `Cn1ccnc1SCC(=O)Nc1sccc1C#N`, for which the “hERG current change (%, negative = inhibition) at 1uM” value is given as 8.23%.

Regarding `O=C(Nc1ccc(-c2csc(Nc3ccc(Cl)cc3)n2)cc1)c1cccc(C(F)(F)F)c1`, the “hERG current change (%, negative = inhibition) at 1uM” value came out at 11.9%.

As to `Cc1ccc(S(=O)(=O)CCC(=O)OCC(=O)NCc2ccccc2)cc1`, the “hERG current change (%, negative = inhibition) at 1uM” value came out at 1.19%.

In the case of `Cc1nn(C(=O)c2ccco2)c(C)c1Sc1ccc(Br)cc1`, the “hERG current change (%, negative = inhibition) at 1uM” value was -0.0162%.

As for `CC(C)Oc1ccc(S(=O)(=O)N2CCCCC2)cc1NC(=O)CN1C(=O)NC2(CCCC2)C1=O`, the “hERG current change (%, negative = inhibition) at 1uM” value stood at 3.06%.

For the molecule `COc1ccc(C2(c3ccc(OC)cc3)NC(=O)N(CC(=O)N(C)c3ccccc3)C2=O)cc1`, the “hERG current change (%, negative = inhibition) at 1uM” value is 16.1%.

`O=C(CCl)Nc1sccc1C(=O)c1ccccc1`: the “hERG current change (%, negative = inhibition) at 1uM” value came to 8.5%.

On to `CC1(C)CC(NC(=O)CCc2nnc(CCCCc3ccccc3)o2)CCO1` (stereo not drawn), for which the “hERG current change (%, negative = inhibition) at 1uM” value stood at 10.6%.

Regarding `CC(=O)Nc1ccc(S(=O)(=O)NCC2CCC(C(=O)NCCC3=CCCCC3)CC2)cc1` (stereo not drawn), the “hERG current change (%, negative = inhibition) at 1uM” value worked out at 6.61%.

As to `O=C1CS/C(=C\[N+](=O)[O-])N1c1ccccc1`, the “hERG current change (%, negative = inhibition) at 1uM” value is on record as -4.14%.

Turning to `O=S1(=O)CC(NCc2ccccc2)C(Nc2ccc(Cl)cc2)C1` (stereo not drawn), the “hERG current change (%, negative = inhibition) at 1uM” value is listed as 6.33%.

Consider `Clc1cccc(-c2nc3nc4ccccc4nc3n2Cc2ccco2)c1`, for which the “hERG current change (%, negative = inhibition) at 1uM” value is -4.38%.

Consider `CCC(C(=O)Nc1cc(C(=O)O)ccc1C)c1ccccc1` (stereo not drawn), for which the “hERG current change (%, negative = inhibition) at 1uM” value is 13.2%.

With `NS(=O)(=O)c1ccc(O)c(NC(=O)c2ccc([N+](=O)[O-])o2)c1`, the “hERG current change (%, negative = inhibition) at 1uM” value worked out at 7.82%.

As to `COc1ccccc1C(=O)Nc1ccc2nc3n(c(=O)c2c1)CCCC3`, the “hERG current change (%, negative = inhibition) at 1uM” value is -2.02%.

For the molecule `CS(=O)(=O)c1ccc(C(=O)OCC(=O)N2CCCc3ccccc32)cc1`, the “hERG current change (%, negative = inhibition) at 1uM” value is 11.3%.

Consider `CC(C)n1c(CN(C)Cc2ccccc2)nc2c1c(=O)n(C)c(=O)n2C`, for which the “hERG current change (%, negative = inhibition) at 1uM” value amounted to 16.7%.

In the case of `COc1ccc(C(O)C(CC(=O)NCCCOC(C)C)C(=O)NCCCOC(C)C)cc1OC` (stereo not drawn), the “hERG current change (%, negative = inhibition) at 1uM” value is 11.4%.

`S=c1nc2ccccc2c2nc(-c3ccccc3Cl)[nH]n12`: the “hERG current change (%, negative = inhibition) at 1uM” value is recorded as 11.2%.

Take `Cc1nnc(NC(=O)CSc2nc3ccccc3o2)s1`: the “hERG current change (%, negative = inhibition) at 1uM” value came to 13.1%.

Take `COc1cc(NC(=O)CSc2nnc(-c3ccncc3)o2)cc(OC)c1OC`: the “hERG current change (%, negative = inhibition) at 1uM” value came to 27%.

Take `CC12CN3CC(C)(CN(C1)C31CCSCC1)C2=O`: the “hERG current change (%, negative = inhibition) at 1uM” value came to 9.42%.

For the molecule `CCOC(=O)C1=C(CSc2n[nH]c(N)n2)NC(=O)NC1C` (stereo not drawn), the “hERG current change (%, negative = inhibition) at 1uM” value is listed as 7.47%.

In the case of `Oc1cccc2ccc(/C=C/c3ccccc3Br)nc12`, the “hERG current change (%, negative = inhibition) at 1uM” value stood at 15.8%.

Turning to `Cc1cc(NC(=O)c2c(Cl)cnn2C)no1`, the “hERG current change (%, negative = inhibition) at 1uM” value is given as 7.38%.

Take `O=c1cc(CN2CCCCC2)nc(C2CC2)[nH]1`: the “hERG current change (%, negative = inhibition) at 1uM” value was -1.73%.

Consider `COC(=O)C1=C2SC(C)C(=O)N2C(N)=C(C#N)C1c1ccc(OC)c(OC)c1` (stereo not drawn), for which the “hERG current change (%, negative = inhibition) at 1uM” value amounted to 1.71%.

With `COc1ccc(CNC(=O)c2cccc(NC3=NC4CS(=O)(=O)CC4S3)c2)cc1` (stereo not drawn), the “hERG current change (%, negative = inhibition) at 1uM” value is listed as -0.0298%.

As for `Cc1cc(O)cc(O)c1-c1onc(C(F)(F)F)c1-c1cscn1`, the “hERG current change (%, negative = inhibition) at 1uM” value is recorded as 11.6%.

For the molecule `COCCOc1ccc(C(F)(F)F)cc1NC(=O)COC(=O)c1cc[n+]([O-])cc1`, the “hERG current change (%, negative = inhibition) at 1uM” value amounted to 5.82%.

As for `COc1ccc(C(=O)NCc2c(CC(C)C)oc(C)c2C(=O)O)cc1`, the “hERG current change (%, negative = inhibition) at 1uM” value was found to be 4.72%.

Turning to `COc1ccc(NC(C)=O)cc1S(=O)(=O)NC(Cc1ccccc1)C(=O)O` (stereo not drawn), the “hERG current change (%, negative = inhibition) at 1uM” value was determined as 9.58%.

Consider `O=c1[nH]c2cc3c(cc2cc1CN(Cc1nnnn1C1CCCC1)C1CCCC1)OCCO3`, for which the “hERG current change (%, negative = inhibition) at 1uM” value is on record as -3.24%.

Turning to `CCOC(=O)C1=C(COC(=O)CCOc2ccc(OC)cc2)NC(=O)NC1C` (stereo not drawn), the “hERG current change (%, negative = inhibition) at 1uM” value is on record as 0.743%.

Regarding `COc1cccc(CN2CCCCC2C(=O)O)c1` (stereo not drawn), the “hERG current change (%, negative = inhibition) at 1uM” value was found to be 8.26%.

In the case of `O=C1SC(c2ccccc2)=C/C1=C\N1CCCCC1`, the “hERG current change (%, negative = inhibition) at 1uM” value turned out to be 1.93%.

On to `Cc1nnc(SCc2nc3ccccc3[nH]2)s1`, for which the “hERG current change (%, negative = inhibition) at 1uM” value is on record as -13.5%.

Regarding `CCOc1ccc(N(CC(=O)Nc2ccccc2F)S(=O)(=O)c2c(C)[nH]c(=O)[nH]c2=O)cc1`, the “hERG current change (%, negative = inhibition) at 1uM” value worked out at 10%.

Take `COc1ccc(N2C(=O)CC(NC3CC3)C2=O)cc1` (stereo not drawn): the “hERG current change (%, negative = inhibition) at 1uM” value is 16.5%.

Turning to `O=C(CCSc1ccccc1)N1CCN(c2ccccc2)CC1`, the “hERG current change (%, negative = inhibition) at 1uM” value stood at 7.48%.

Consider `CN1CCN(C(=O)CC2C(=O)NCCN2Cc2ccc(-c3ccccc3)cc2)CC1` (stereo not drawn), for which the “hERG current change (%, negative = inhibition) at 1uM” value is recorded as 5.82%.

Take `CC(=O)c1cccc(NC(=O)COC(=O)CC2CC3CCC2C3)c1` (stereo not drawn): the “hERG current change (%, negative = inhibition) at 1uM” value is 4.89%.

In the case of `O=C(Oc1c(CN2CCOCC2)cc(Cl)c2cccnc12)c1ccccc1F`, the “hERG current change (%, negative = inhibition) at 1uM” value is recorded as 11.2%.

As for `COCCCC1CCN(C(=O)c2cc(COc3ccc(C)nc3)on2)CC1`, the “hERG current change (%, negative = inhibition) at 1uM” value amounted to 8.18%.

Regarding `Cc1ccsc1C(=O)C1CCCN(Cc2cnc(N3CCOCC3)s2)C1` (stereo not drawn), the “hERG current change (%, negative = inhibition) at 1uM” value is on record as -7.04%.

In the case of `O=c1c2cnn(-c3ccccc3)c2nc(-c2cccs2)n1-c1cccc(Cl)c1`, the “hERG current change (%, negative = inhibition) at 1uM” value is recorded as 9.21%.

For `Cc1ccc(-c2csc(N3CCN(c4cc5c(cc4Cl)nc(-c4ccncc4)n5CCN4CCCCC4)CC3)n2)cc1`, the “hERG current change (%, negative = inhibition) at 1uM” value is 18.9%.
